Test results: PMC4336329 (PLoS ONE, 2015)
The campaign covered roughly 310,000 compounds. About 2,200 (0.71%) showed an effect of 50% or more. The effect is printed as a negative number. This is one part of the list.

Each compound was assayed against human ether-à-go-go-related gene (hERG) potassium channel (human, UniProt Q12809) (assay: primary screen, population patch clamp on CHO cells stably expressing hERG).
human ether-à-go-go-related gene (hERG) potassium channel, sequence (Q12809 whole entry, looked up): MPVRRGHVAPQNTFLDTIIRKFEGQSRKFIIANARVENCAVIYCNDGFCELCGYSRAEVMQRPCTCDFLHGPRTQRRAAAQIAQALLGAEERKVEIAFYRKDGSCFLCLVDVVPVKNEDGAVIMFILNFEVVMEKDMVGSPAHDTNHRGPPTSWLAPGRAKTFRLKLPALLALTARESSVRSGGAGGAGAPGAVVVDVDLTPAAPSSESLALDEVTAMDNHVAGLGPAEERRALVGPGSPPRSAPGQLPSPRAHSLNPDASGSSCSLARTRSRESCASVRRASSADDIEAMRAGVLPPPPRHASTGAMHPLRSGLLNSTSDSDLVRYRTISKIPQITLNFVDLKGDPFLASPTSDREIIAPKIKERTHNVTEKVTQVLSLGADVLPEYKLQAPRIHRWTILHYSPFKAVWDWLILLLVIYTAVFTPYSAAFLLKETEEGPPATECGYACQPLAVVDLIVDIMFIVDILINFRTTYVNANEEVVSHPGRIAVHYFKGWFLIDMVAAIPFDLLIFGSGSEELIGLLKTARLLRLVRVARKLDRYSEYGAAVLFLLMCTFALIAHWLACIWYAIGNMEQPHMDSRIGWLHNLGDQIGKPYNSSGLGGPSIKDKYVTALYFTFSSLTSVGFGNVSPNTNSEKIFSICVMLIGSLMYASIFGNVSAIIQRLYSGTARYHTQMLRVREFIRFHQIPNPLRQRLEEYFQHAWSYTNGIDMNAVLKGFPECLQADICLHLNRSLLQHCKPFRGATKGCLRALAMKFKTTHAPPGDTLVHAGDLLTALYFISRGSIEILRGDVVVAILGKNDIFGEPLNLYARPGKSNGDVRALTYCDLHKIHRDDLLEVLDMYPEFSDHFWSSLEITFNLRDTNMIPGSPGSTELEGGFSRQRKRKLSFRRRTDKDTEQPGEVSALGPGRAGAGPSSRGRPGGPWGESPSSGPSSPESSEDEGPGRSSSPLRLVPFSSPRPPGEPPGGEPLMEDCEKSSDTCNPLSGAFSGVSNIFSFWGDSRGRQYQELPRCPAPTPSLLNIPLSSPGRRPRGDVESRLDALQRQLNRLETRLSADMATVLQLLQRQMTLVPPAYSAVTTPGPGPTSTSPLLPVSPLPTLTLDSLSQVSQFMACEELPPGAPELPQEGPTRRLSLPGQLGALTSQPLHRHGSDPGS

Row | SMILES | hERG current change (%, negative = inhibition) at 1uM [%]
1 | CCOC(=O)c1cc(-c2ccccc2)sc1NC(=O)CN1C(=O)c2ccccc2C1=O | 10
2 | C#CCNC(=O)C1=C[C@@H](c2ccc(Br)cc2)C[C@@H](OCc2ccc(CO)cc2)O1 | 16.4
3 | Cc1cc(C(=O)NC(C)CCc2ccccc2)ccc1[N+](=O)[O-] (centres unmarked) | 11.2
4 | CCN(Cc1ccccc1)C(=O)c1cccc(S(=O)(=O)N2CCN(c3ccccc3)CC2)c1 | -7.63
5 | CCCCn1c(N)c(N(CCOC)C(=O)CSc2ccccc2C)c(=O)[nH]c1=O | 4.8
6 | COC(=O)c1c(NC(=O)C2CCCO2)sc2c1CCC2 (centres unmarked) | 8.99
7 | Nc1c2c(nc3ccc(Br)cc13)N(Cc1ccccc1)CC2 | 2.31
8 | Cc1nc(Nc2ccc(S(=O)(=O)N3CCCC3)cc2)c2nnn(Cc3ccccc3)c2n1 | 15.9
9 | COc1ccc(/C=C2\C(=O)ON=C2c2ccccc2)cc1OC | 9.99
10 | COc1ccc(-c2nnc(SCC(=O)Nc3ccccc3OC)o2)cc1 | 7.91
11 | CCOC(=O)CSc1ccc2nnc(-c3cccnc3)n2n1 | -0.888
12 | Cc1c(Cl)c([N+](=O)[O-])nn1CC(=O)Nc1ccc2c(c1)OCO2 | 21.5
13 | CCn1cc(S(=O)(=O)CC(=O)NC2CCCCC2)c2ccccc21 | 14.5
14 | CCCCn1c(N)c(N(CC)C(=O)c2cccc(S(=O)(=O)N3CCN(C)CC3)c2)c(=O)[nH]c1=O | 13.8
15 | COc1ccc2c(c1)c(/C=N/Nc1nc3ccccc3[nH]1)c(C)n2C | 10.8
16 | Cc1ccc(S(=O)(=O)N2CCOC23CCN(C(=O)C(=O)NCCC(C)C)CC3)cc1 | 4.48
17 | CCn1ccnc1CNC(=O)CC1C(=O)NCCN1CC(c1ccccc1)c1ccccc1 (centres unmarked) | 8.81
18 | Cc1ccc(NC(=O)CC(=O)c2ccc([N+](=O)[O-])cc2)cc1S(=O)(=O)Nc1cccc(Cl)c1 | 6.52
19 | Cc1ccc(Nc2nc3nonc3[nH]c2=O)cc1Cl | 15.8
20 | O=C(COC(=O)c1ccc(Cl)c(Cl)c1)NC1CCCC1 | 16.8
21 | COC(=O)c1cc(N=CC2=C(O)CC(C)(C)CC2=O)cc(C(=O)OC)c1 | 7.19
22 | Cc1cccc(NC(=O)CCc2nnc3ccc(NCc4ccco4)nn23)n1 | 12.6

Row | SMILES | hERG current change (%, negative = inhibition) at 1uM [%]
23 | CCOc1ccc(C(=S)N2CCOCC2)cc1 | 5.79
24 | Cc1cc(C(=O)N/N=C/c2ccc(-c3ccccc3Cl)o2)n[nH]1 | 1.12
25 | Cc1ccc(NC(=O)Cn2c(=O)n(CCCC(=O)NCc3ccco3)c(=O)c3ccccc32)cc1 | 1.54
26 | O=C(Nc1ccc(N2CCOCC2)cc1N1CCOCC1)c1cccs1 | 13.4
27 | Cc1ccc(Cl)cc1N(CC(=O)NC1CCCCC1)S(C)(=O)=O | 13.4
28 | CCOc1ccc(NC(=O)CSc2ncc(-c3ccc(F)cc3)n2Cc2ccco2)cc1 | 8.18
29 | O=C(COC(=O)CN1C(=O)C2CC=CCC2C1=O)Nc1cc(C(F)(F)F)ccc1N1CCOCC1 (centres unmarked) | -0.0496
30 | O=C(/C=C/C(=O)N1CCc2ccccc2C1)N1CCc2ccccc2C1 | -3.15
31 | CCOc1ccccc1/C=C(\NC(=O)c1ccccc1)C(=O)NCCC(=O)O | 3.06
32 | COC(=O)C1=C(c2ccc(F)cc2OCc2ccccc2)C[C@@H]2CC[C@H]1N2C(=O)N1CCCC1 | 7.01
33 | CC(C)(C)n1nnnc1SCC(=O)Nc1nn(-c2ccccc2)nc1C(N)=O | 0.356
34 | CCOC(=O)COc1ccccc1-c1ccno1 | 4.52
35 | COc1ccc(N(C(=O)CCl)C(C(=O)NCCc2ccccc2)c2cccs2)cc1 (centres unmarked) | -2.86
36 | COc1ccc(N=C2C(=O)N3CCCc4cccc2c43)cc1 | -3.11
37 | O=C(NNc1ncnc2c1cnn2-c1cccc(Cl)c1)c1ccco1 | 14.4
38 | CC(=O)c1cnc2n(c1=O)CCS2 | 15.5
39 | C/C(=N\N=C1\NC(=O)C(CC(=O)NCc2ccccc2)S1)C(C)C (centres unmarked) | 11.7
40 | O=C(C[n+]1cccc(O)c1)Nc1ccc(Br)cc1.O=S(=O)([O-])c1ccc2ccccc2c1 | 14.4
41 | COC(=O)[C@H](CCSC)NC(=O)Nc1ccc(OC)cc1OC | 6.47
42 | CCOc1ccc(/C=N/n2nnnc2N)cc1OCC | 11.2
43 | Cc1ccccc1CC(=O)Nc1sc(C(C)C)cc1C(=O)N1CCOCC1 | 2.93
44 | COc1cc(CC(NC(C)=O)C(=O)NC2CCN(c3c(Cc4ccccc4)c(C)nc4ncnn34)CC2)cc(OC)c1 (centres unmarked) | 14.3
